The record followed here is paper PMC4336329 (PLoS ONE, 2015).

Among all 310,000 compounds or so, about 14,000 (4.5%) showed an effect of 50% or more. Effects have a minus sign here. Some of the results follow.
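Note: peak tail current of the secondary pulse compared with the same well before compound.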

For this assay, the target named is human ether-à-go-go-related gene (hERG) potassium channel (human, UniProt Q12809). Description: primary screen, population patch clamp on CHO cells stably expressing hERG.
human ether-à-go-go-related gene (hERG) potassium channel, sequence (Q12809 whole entry, looked up): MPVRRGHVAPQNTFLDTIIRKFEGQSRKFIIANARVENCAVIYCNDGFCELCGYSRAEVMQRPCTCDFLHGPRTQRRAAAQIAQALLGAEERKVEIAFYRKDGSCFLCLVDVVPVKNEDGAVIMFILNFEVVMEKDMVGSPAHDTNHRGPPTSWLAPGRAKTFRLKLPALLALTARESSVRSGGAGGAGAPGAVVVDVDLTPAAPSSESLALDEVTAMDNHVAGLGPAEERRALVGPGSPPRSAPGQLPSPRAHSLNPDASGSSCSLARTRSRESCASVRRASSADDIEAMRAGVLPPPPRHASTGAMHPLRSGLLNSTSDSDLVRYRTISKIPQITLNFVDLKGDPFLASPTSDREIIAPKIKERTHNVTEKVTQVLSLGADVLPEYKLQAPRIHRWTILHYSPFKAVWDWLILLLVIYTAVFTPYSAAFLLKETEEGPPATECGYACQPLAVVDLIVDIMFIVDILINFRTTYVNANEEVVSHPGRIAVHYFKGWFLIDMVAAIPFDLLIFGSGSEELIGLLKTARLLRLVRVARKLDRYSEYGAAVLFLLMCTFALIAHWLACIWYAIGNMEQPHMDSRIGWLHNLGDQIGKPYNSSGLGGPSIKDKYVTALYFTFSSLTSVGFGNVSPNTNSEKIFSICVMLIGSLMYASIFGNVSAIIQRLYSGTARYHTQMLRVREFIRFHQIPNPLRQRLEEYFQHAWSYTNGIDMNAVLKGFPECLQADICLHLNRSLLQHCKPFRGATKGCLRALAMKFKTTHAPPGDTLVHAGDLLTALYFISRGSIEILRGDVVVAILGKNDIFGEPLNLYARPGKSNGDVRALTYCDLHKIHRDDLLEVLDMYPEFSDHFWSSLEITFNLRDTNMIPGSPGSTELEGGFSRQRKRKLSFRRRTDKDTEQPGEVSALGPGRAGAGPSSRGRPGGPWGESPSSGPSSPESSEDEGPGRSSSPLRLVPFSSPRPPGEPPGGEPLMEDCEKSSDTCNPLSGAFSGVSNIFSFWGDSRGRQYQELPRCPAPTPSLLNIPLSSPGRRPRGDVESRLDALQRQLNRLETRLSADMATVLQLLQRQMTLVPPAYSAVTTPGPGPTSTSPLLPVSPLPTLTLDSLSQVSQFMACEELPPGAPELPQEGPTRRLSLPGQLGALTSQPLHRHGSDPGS
Consider `COc1ccc(N2CCN(C(c3cccs3)C(C)NC(=O)c3ccco3)CC2)cc1` (stereo not shown), for which the “hERG current change (%, negative = inhibition) at 10uM” value was determined as 5.46%. Take `c1ccc(Cn2nnc3c(NCc4ccc5c(c4)OCO5)nc(C4CC4)nc32)cc1`: the “hERG current change (%, negative = inhibition) at 10uM” value is on record as 5.44%.

Take `O=C(NC1CCS(=O)(=O)C1)/C(=C\c1ccco1)NC(=O)c1ccccc1` (stereo not shown): the “hERG current change (%, negative = inhibition) at 10uM” value is 1.36%.

Take `O=C(CN1C(=O)NC2(CCCCCCC2)C1=O)Nc1ccc(Br)cc1Br`: the “hERG current change (%, negative = inhibition) at 10uM” value is given as -14.3%. `O=C(COC(=O)C1CC1)Nc1ccc(Cl)cn1`: the “hERG current change (%, negative = inhibition) at 10uM” value worked out at 2.17%. `Cc1ccc(CNC(=O)CSc2nnc3n2CCCCC3)cc1`: the “hERG current change (%, negative = inhibition) at 10uM” value is recorded as -4.49%. In the case of `COc1ccc(NC(=S)N2CCN(Cc3ccccc3)CC2)c(OC)c1`, the “hERG current change (%, negative = inhibition) at 10uM” value is given as -5.79%. As to `CC(Cl)(Cl)/C(=N/P(=S)(N1CCOCC1)N1CCOCC1)N1CCOCC1`, the “hERG current change (%, negative = inhibition) at 10uM” value came out at 13.7%. Regarding `O=C(COC(=O)Cc1ccc(S(=O)(=O)N2CCOCC2)s1)NCc1ccc(Cl)cc1`, the “hERG current change (%, negative = inhibition) at 10uM” value is -27.8%. Turning to `CCc1ccc(C(=O)NC(CCSC)C(=O)O)cc1` (stereo not shown), the “hERG current change (%, negative = inhibition) at 10uM” value turned out to be 15.6%.

On to `COc1cccc(C(=O)N2c3cc(C)ccc3OCC2C(C)(C)C)c1` (stereo not shown), for which the “hERG current change (%, negative = inhibition) at 10uM” value was determined as 12.2%.

In the case of `COc1ccc(C2NC(=S)NC(C)=C2C(=O)Nc2ccccn2)cc1` (stereo not shown), the “hERG current change (%, negative = inhibition) at 10uM” value is recorded as -0.0177%.

For the molecule `COc1ccccc1OCC(=O)N1CCN(c2ccccc2OC)CC1`, the “hERG current change (%, negative = inhibition) at 10uM” value is 1.3%. In the case of `COc1ccc2nc(C3CCCCC3)c3c(c2c1)CCC3`, the “hERG current change (%, negative = inhibition) at 10uM” value is 8.35%. In the case of `c1ccc2c(c1)CCN(c1nc(CN3CCOCC3)nc3sc4c(c13)CCCC4)C2`, the “hERG current change (%, negative = inhibition) at 10uM” value is given as -60.2%.

Turning to `CCC1CN(C(=O)NCc2ccc(F)cc2)c2cc(Cl)ccc2O1` (stereo not shown), the “hERG current change (%, negative = inhibition) at 10uM” value stood at 12.5%.

`O=C(O)c1ccc(Cn2nnc3sc4c(c3c2=O)CCCC4)cc1`: the “hERG current change (%, negative = inhibition) at 10uM” value stood at 16.8%. In the case of `O=C(NC1=NCCCCC1)c1cccc2ccccc12`, the “hERG current change (%, negative = inhibition) at 10uM” value is on record as 9.26%.

Turning to `CCCCN(C(=O)c1ccc([N+](=O)[O-])s1)c1c(N)n(CCCC)c(=O)[nH]c1=O`, the “hERG current change (%, negative = inhibition) at 10uM” value is listed as -12.9%. Consider `CCCCN1CC(=O)N2[C@H]3c4ccccc4OC[C@@H]3[C@H](c3ccccc3)[C@]2(C)C1=O`, for which the “hERG current change (%, negative = inhibition) at 10uM” value is listed as -19.9%. For the molecule `Clc1ccc(CSc2nnc3c(n2)[nH]c2ccccc23)cc1`, the “hERG current change (%, negative = inhibition) at 10uM” value was -1.62%. To `COc1ccc2c(c1)CCCC21NC(=O)N(CC(N)=O)C1=O` (stereo not shown) belongs -6.13%; to `Cc1cccn2c(=O)c(C=O)c(Sc3ncccn3)nc12`, 18.6%. For the molecule `CCCc1c(C)nc(N2CCN(c3ccccc3F)CC2)[nH]c1=O`, the “hERG current change (%, negative = inhibition) at 10uM” value was found to be 23%. In the case of `COc1ccc(CN2CCC(Cc3ccccc3)CC2)c(C)c1C`, the “hERG current change (%, negative = inhibition) at 10uM” value is -23%. As for `Cn1nnnc1SCC(=O)c1cccs1`, the “hERG current change (%, negative = inhibition) at 10uM” value came to 3%. As to `CCOC(=O)C1C(=O)OC(C)(C)C1C(C)C(=O)c1ccc(C)cc1C` (stereo not shown), the “hERG current change (%, negative = inhibition) at 10uM” value is given as -33.2%. Take `COc1cc(C)c(S(=O)(=O)NCc2cccnc2)cc1C`: the “hERG current change (%, negative = inhibition) at 10uM” value amounted to 15.7%. As to `CC(=O)c1cccc(NC(=O)COC(=O)c2n[nH]c3ccccc23)c1`, the “hERG current change (%, negative = inhibition) at 10uM” value was determined as 3.96%. For the molecule `Cc1ccc(S(=O)(=O)Nc2ccc3nc(-c4cccn4C)[nH]c3c2)cc1`, the “hERG current change (%, negative = inhibition) at 10uM” value was -79.3%. As for `COc1ccccc1NC=C1C(=O)OC(C)(C)OC1=O`, the “hERG current change (%, negative = inhibition) at 10uM” value is on record as -24%. Regarding `O=C1C2CCCN2C(=O)N1CCCCN1CCN(c2ccccc2)CC1` (stereo not shown), the “hERG current change (%, negative = inhibition) at 10uM” value was -21.6%.

With `Cn1c(SCc2ccccc2Cl)nnc1-c1cnccn1`, the “hERG current change (%, negative = inhibition) at 10uM” value is listed as 8.99%. Turning to `CCN(CC(=O)Nc1ccc(S(=O)(=O)N2CCCC2)cc1)CC(=O)Nc1cccc(OC)c1`, the “hERG current change (%, negative = inhibition) at 10uM” value was 16%. Take `Nc1ccc(C(=O)OCCCc2nc3cc4ccccc4cc3[nH]2)cc1`: the “hERG current change (%, negative = inhibition) at 10uM” value is -33%.

`COc1cc2cc(C#N)c(SCC(=O)Nc3cc(C)on3)nc2cc1OC`: the “hERG current change (%, negative = inhibition) at 10uM” value came to 4.1%. The result for `COc1cccc(OC)c1C(=O)N1CCN(c2c(Cc3ccccc3)c(C)nc3ncnn23)CC1` reads -16%; that for `Cc1ccccc1CNC(=O)CCC(=O)N1CCOc2ccccc21`, 7.41%; that for `CC1(NC(=O)CCc2nc3ccccc3c(=O)[nH]2)CCS(=O)(=O)C1` (stereo not shown), -3.51%. Regarding `O=C(c1cccc(-c2ccccc2F)c1)N1CC[C@@H](N2CCC(O)CC2)[C@H](O)C1`, the “hERG current change (%, negative = inhibition) at 10uM” value is -17.7%. In the case of `Cc1cc(=O)[nH]c(NN=C2C3CC4CC(C3)CC2C4)n1`, the “hERG current change (%, negative = inhibition) at 10uM” value is -1.08%. Regarding `COc1ccc(S(=O)(=O)N2CCC3(CC2)OCCN3S(=O)(=O)c2cccs2)cc1`, the “hERG current change (%, negative = inhibition) at 10uM” value is -23.8%. In the case of `Cc1sc2c(c1C)c(=O)n(-c1cccc(C(F)(F)F)c1)c(=O)n2CC(=O)NCc1ccco1`, the “hERG current change (%, negative = inhibition) at 10uM” value came out at 10.4%.
